No constants are given. Whether binding was seen depends on the method and setting. Binding seen in cells or lysates may run through a third protein. Some binding calls cover weakened binding; strength is not graded here.
T1: interferon regulatory factor 1 (IRF1) (human (endogenous in THP1)) (UniProt P10914)
T1 sequence: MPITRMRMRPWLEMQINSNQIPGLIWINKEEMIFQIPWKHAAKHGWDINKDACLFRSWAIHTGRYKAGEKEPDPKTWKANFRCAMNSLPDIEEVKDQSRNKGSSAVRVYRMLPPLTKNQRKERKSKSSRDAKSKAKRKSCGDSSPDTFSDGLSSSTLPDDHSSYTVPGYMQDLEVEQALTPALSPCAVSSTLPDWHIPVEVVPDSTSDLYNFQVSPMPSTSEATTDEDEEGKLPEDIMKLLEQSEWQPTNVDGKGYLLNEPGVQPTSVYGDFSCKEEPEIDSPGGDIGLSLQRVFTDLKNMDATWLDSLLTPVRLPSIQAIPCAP

Amino acid sequences for entries named in this document (tags omitted).
UniProt O15392: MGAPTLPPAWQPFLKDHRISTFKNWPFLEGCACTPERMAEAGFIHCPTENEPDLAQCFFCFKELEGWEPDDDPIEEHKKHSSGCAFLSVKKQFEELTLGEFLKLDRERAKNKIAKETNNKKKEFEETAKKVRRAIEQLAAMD
UniProt P84022: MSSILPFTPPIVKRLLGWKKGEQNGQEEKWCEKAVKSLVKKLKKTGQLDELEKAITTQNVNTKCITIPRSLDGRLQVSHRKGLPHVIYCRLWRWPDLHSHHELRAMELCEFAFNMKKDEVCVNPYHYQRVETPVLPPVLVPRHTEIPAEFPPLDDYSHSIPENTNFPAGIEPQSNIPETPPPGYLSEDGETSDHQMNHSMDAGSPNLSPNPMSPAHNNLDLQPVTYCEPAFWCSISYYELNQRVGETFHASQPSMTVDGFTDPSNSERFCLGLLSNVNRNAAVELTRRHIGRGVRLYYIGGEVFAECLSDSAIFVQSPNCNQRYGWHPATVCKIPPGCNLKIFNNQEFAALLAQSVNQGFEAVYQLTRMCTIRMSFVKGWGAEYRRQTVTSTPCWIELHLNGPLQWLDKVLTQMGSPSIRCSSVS
UniProt P05412: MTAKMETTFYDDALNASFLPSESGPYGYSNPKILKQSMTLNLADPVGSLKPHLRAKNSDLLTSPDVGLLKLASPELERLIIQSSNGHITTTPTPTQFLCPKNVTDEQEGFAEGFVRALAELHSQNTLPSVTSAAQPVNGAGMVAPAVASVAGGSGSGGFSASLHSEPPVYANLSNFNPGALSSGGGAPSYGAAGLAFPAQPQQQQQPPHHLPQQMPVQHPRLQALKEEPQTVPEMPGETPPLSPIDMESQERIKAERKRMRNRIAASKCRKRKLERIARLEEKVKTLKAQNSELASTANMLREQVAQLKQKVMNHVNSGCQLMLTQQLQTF
UniProt P01106: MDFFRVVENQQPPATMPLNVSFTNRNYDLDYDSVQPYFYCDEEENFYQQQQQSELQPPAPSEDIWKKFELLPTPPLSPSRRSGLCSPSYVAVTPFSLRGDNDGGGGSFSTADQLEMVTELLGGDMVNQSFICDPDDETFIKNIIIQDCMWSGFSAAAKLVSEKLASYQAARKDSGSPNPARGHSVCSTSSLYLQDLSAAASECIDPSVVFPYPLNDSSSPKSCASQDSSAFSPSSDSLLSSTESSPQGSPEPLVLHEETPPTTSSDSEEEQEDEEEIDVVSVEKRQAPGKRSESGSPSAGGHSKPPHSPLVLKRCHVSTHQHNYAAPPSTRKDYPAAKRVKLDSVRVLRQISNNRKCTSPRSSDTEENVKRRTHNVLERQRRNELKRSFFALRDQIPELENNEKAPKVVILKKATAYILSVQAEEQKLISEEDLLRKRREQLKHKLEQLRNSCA


Legend:
[1] = target: survivin (human (endogenous in THP1)) (UniProt O15392); experiment: co-IP; IP of endogenous survivin from THP1 nuclear extract with monoclonal rabbit anti-human survivin (ab192675) on Dynabeads Protein G, cross-linking with bis(sulfosuccinimidyl)suberate; nuclei lysed in modified RIPA (Tris-HCl pH 7.4 25 mM, NaCl 200 mM, EDTA 1 mM, Nonidet P-40 1%, glycerol 5%); control IP with rabbit IgG; Western blot of the precipitate
[2] = target: T1, interferon regulatory factor 1 (IRF1) (human (endogenous in THP1)); experiment: co-IP; reciprocal IP of endogenous IRF1 (sc74530) or SMAD3 (sc101154) from THP1 nuclear extract on Dynabeads Protein G, cross-linking with bis(sulfosuccinimidyl)suberate; control IP with mouse IgG; Western blot for survivin
[3] = target: SMAD3 (human (endogenous in THP1)) (UniProt P84022); experiment: as above

Molecule	binding [1]	binding [2]	binding [3]
JUN (from UniProt P05412 1-331)	no binding		
SMAD3 (from UniProt P84022 1-425)	binds		
c-MYC (from UniProt P01106 1-454)	no binding		
survivin (from UniProt O15392 1-142)		binds	binds
interferon regulatory factor 1 (IRF1) (protein, UniProt P10914 1-325) MPITRMRMRPWLEMQINSNQIPGLIWINKEEMIFQIPWKHAAKHGWDINKDACLFRSWAIHTGRYKAGEKEPDPKTWKANFRCAMNSLPDIEEVKDQSRNKGSSAVRVYRMLPPLTKNQRKERKSKSSRDAKSKAKRKSCGDSSPDTFSDGLSSSTLPDDHSSYTVPGYMQDLEVEQALTPALSPCAVSSTLPDWHIPVEVVPDSTSDLYNFQVSPMPSTSEATTDEDEEGKLPEDIMKLLEQSEWQPTNVDGKGYLLNEPGVQPTSVYGDFSCKEEPEIDSPGGDIGLSLQRVFTDLKNMDATWLDSLLTPVRLPSIQAIPCAP	binds		
IRF8 (protein, UniProt Q02556 1-426) MCDRNGGRRLRQWLIEQIDSSMYPGLIWENEEKSMFRIPWKHAGKQDYNQEVDASIFKAWAVFKGKFKEGDKAEPATWKTRLRCALNKSPDFEEVTDRSQLDISEPYKVYRIVPEEEQKCKLGVATAGCVNEVTEMECGRSEIDELIKEPSVDDYMGMIKRSPSPPEACRSQLLPDWWAQQPSTGVPLVTGYTTYDAHHSAFSQMVISFYYGGKLVGQATTTCPEGCRLSLSQPGLPGTKLYGPEGLELVRFPPADAIPSERQRQVTRKLFGHLERGVLLHSSRQGVFVKRLCQGRVFCSGNAVVCKGRPNKLERDEVVQVFDTSQFFRELQQFYNSQGRLPDGRVVLCFGEEFPDMAPLRSKLILVQIEQLYVRQLAEEAGKSCGAGSVMQAPEEPPPDQVFRMFPDICASHQRSFFRENQQITV	no binding		
JUND (protein, UniProt P17535 1-347) METPFYGDEALSGLGGGASGSGGSFASPGRLFPGAPPTAAAGSMMKKDALTLSLSEQVAAALKPAAAPPPTPLRADGAPSAAPPDGLLASPDLGLLKLASPELERLIIQSNGLVTTTPTSSQFLYPKVAASEEQEFAEGFVKALEDLHKQNQLGAGAAAAAAAAAAGGPSGTATGSAPPGELAPAAAAPEAPVYANLSSYAGGAGGAGGAATVAFAAEPVPFPPPPPPGALGPPRLAALKDEPQTVPDVPSFGESPPLSPIDMDTQERIKAERKRLRNRIAASKCRKRKLERISRLEEKVKTLKSQNTELASTASLLREQVAQLKQKVLSHVNSGCQLLPQHQVPAY	no binding		
